Test results reported in the supplement of paper PMC10126150.
Values marked as one replicate rest on one cluster of the flow cell; about a third of the high ones do not repeat.

Tested on: ATP
Experiment: switch fluorescence ratio, 500 uM ATP over buffer (Cy3 cluster intensity, sum of 5 cycles each) (fold (ratio)); higher = stronger signal-on switching upon ATP binding; sequences stand for … in TCGTCGGCAGCGTCAGATGTGTATAAGAGACAGTTTTTTTTTTTTTTTTTTTTTTTTT…TC
Details: aptamer strand: ATP DNA aptamer (quencher-CACCTGGGGGAGTATTGCGGAGGAAGG + anchor), 100 nM annealed; ATP concentration: 500 uM; one replicate
How it was run: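 For every switch-domain sequence, the fluorescence ratio is the mean of per-cluster values, each being summed target-cycle Cy3 intensity over summed buffer-cycle Cy3 intensity. Clusters outside 100-1000 RFU were excluded. On a modified Illumina MiSeq flow-cell, the Cy3-labelled switching-strand clusters were annealed to 100 nM quencher-labelled ATP aptamer, imaged in selection buffer and then after 15 min with 500 uM ATP at 22 °C. Five such cycles were run, with NaOH stripping and re-annealing between them.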
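Note: ATP exposure 15 min at 22 °C before imaging.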

For AAATGGGCGG, the switch fluorescence ratio was 1.03.

AAGCAGGGTC gave a switch fluorescence ratio of 1.03.

CCACTATACT was tested, and the switch fluorescence ratio was 2.4.

In the case of GGGCTCAGCG, the switch fluorescence ratio was 0.972.

In the case of GCTAGGTCAC, the switch fluorescence ratio was 1.01.

With TGGTTAACCG the switch fluorescence ratio was 1.01.

ATTCTTTGCG showed a switch fluorescence ratio of 0.957.

For ATGGTAATTC, the switch fluorescence ratio was 0.968.

With ATGAAGCGTT the switch fluorescence ratio was 0.985.

With CCGAGAGAAG the switch fluorescence ratio was 1.21.

Sequence CCCGGATGCT has a switch fluorescence ratio of 1.11.

For GGCTCACGTT, the switch fluorescence ratio was 1.03.

ACACCAGCAC showed a switch fluorescence ratio of 1.02.

In the case of AAGCGCGGAT, the switch fluorescence ratio was 0.99.

In the case of CCAAATTATC, the switch fluorescence ratio was 1.02.

ATGCGGGTT gave a switch fluorescence ratio of 1.08.

GAAAACGCGC was tested, and the switch fluorescence ratio was 1.

Sequence AAGTAT has a switch fluorescence ratio of 1.01.

In the case of CGCAATTCCG, the switch fluorescence ratio was 2.25.

GTTTACCCAG was tested, and the switch fluorescence ratio was 1.01.

CAAACTTCT showed a switch fluorescence ratio of 1.01.

CTTCGTCGTG was tested, and the switch fluorescence ratio was 0.98.

Work on GACCGGTGTT yielded a switch fluorescence ratio of 0.942.

For TCGAGTAAAT, the switch fluorescence ratio was 2.1.

CTAAGGTGAC was tested, and the switch fluorescence ratio was 1.07.

Sequence GGAACGCGAC has a switch fluorescence ratio of 1.55.

For CAATTTAGG, the switch fluorescence ratio was 0.968.

Work on AAGCAGTGGC yielded a switch fluorescence ratio of 1.11.

GGATATACCC was tested, and the switch fluorescence ratio was 1.08.

CAATACGTCG showed a switch fluorescence ratio of 1.11.

Sequence GGTTATTGCG has a switch fluorescence ratio of 0.993.

TAAAGTGCAC gave a switch fluorescence ratio of 0.993.

Work on CGTGTTAAAA yielded a switch fluorescence ratio of 0.996.

In the case of TCCCTTTTTA, the switch fluorescence ratio was 1.14.

TTAATTCGTG was tested, and the switch fluorescence ratio was 1.

Sequence ATTAGAGGAA has a switch fluorescence ratio of 0.985.

For CTGTATTTCA, the switch fluorescence ratio was 1.03.

Sequence CAGTGGGGA has a switch fluorescence ratio of 1.04.

Work on TCTTGTTGTA yielded a switch fluorescence ratio of 0.972.

Sequence CTGCTCAATG has a switch fluorescence ratio of 1.09.

CTGGGGAATT was tested, and the switch fluorescence ratio was 1.01.

Sequence CAAAACTAGG has a switch fluorescence ratio of 1.03.

TTTCTTTATA gave a switch fluorescence ratio of 1.03.

In the case of CAGCCCTGAC, the switch fluorescence ratio was 1.39.

With TTCCGGCAG the switch fluorescence ratio was 1.21.

CAGAATATAC showed a switch fluorescence ratio of 1.48.

With AGTGTGGAC the switch fluorescence ratio was 1.03.

With CGTTCAATAA the switch fluorescence ratio was 1.76.

For ATACGTAGGG, the switch fluorescence ratio was 1.06.

For GCGGGTTCAC, the switch fluorescence ratio was 1.03.

Work on TTGGTCACCG yielded a switch fluorescence ratio of 1.02.

CGGACGAC showed a switch fluorescence ratio of 1.08.

AAACTAGA was tested, and the switch fluorescence ratio was 1.02.

GCTACTTGAG gave a switch fluorescence ratio of 0.981.

Sequence CCAGGGATGC has a switch fluorescence ratio of 2.48.

Sequence TATAAGAGGA has a switch fluorescence ratio of 0.975.

Sequence GTTGCAGTTT has a switch fluorescence ratio of 0.98.

For AGGATAGGTA, the switch fluorescence ratio was 1.04.

ACTGACTATA showed a switch fluorescence ratio of 1.14.

Work on TATCCTAGG yielded a switch fluorescence ratio of 0.996.

For CTGTAGAACC, the switch fluorescence ratio was 1.05.

Work on AAAGATTTTC yielded a switch fluorescence ratio of 0.986.

In the case of GCCTGAACGT, the switch fluorescence ratio was 0.981.

For CTGGGAGCGC, the switch fluorescence ratio was 1.16.

For CCAGCAGAGC, the switch fluorescence ratio was 1.15.

Work on TCTCACAATC yielded a switch fluorescence ratio of 3.33.

AATAGATGTT was tested, and the switch fluorescence ratio was 1.03.

AGTAATAGCC gave a switch fluorescence ratio of 0.864.

For AACTAGCACC, the switch fluorescence ratio was 1.07.

For GGAAGAGTTA, the switch fluorescence ratio was 1.02.

In the case of GCCGCGACG, the switch fluorescence ratio was 1.04.

TTGGCAAGGC showed a switch fluorescence ratio of 1.33.

GAAGATTATG was tested, and the switch fluorescence ratio was 0.999.

In the case of GGGAGTATCG, the switch fluorescence ratio was 1.02.

AAACCCGTCG gave a switch fluorescence ratio of 0.991.

For ACGTTTGAAA, the switch fluorescence ratio was 0.998.

AAGCCGGTA gave a switch fluorescence ratio of 1.03.

For TATGAGAGTC, the switch fluorescence ratio was 1.07.

Sequence TACTTGGCAT has a switch fluorescence ratio of 1.12.

With GTGGTTTCGA the switch fluorescence ratio was 0.988.

With TGTTAGGGCC the switch fluorescence ratio was 1.04.

Work on TTGAGGGTGT yielded a switch fluorescence ratio of 1.06.

TTGTTCCCCG gave a switch fluorescence ratio of 1.06.

CGAGTTCGCT gave a switch fluorescence ratio of 0.982.

GAAGGTCTGT was tested, and the switch fluorescence ratio was 1.

With AGCGGAGCGG the switch fluorescence ratio was 1.

For CCGTTACAGC, the switch fluorescence ratio was 1.34.

For CGATGACACT, the switch fluorescence ratio was 0.996.

ATCCACGATC was tested, and the switch fluorescence ratio was 1.25.

CGAATGCTGT gave a switch fluorescence ratio of 0.93.

With AACTTATGGG the switch fluorescence ratio was 1.05.

In the case of AACGGAGTGT, the switch fluorescence ratio was 0.935.

For ACATGGCCCG, the switch fluorescence ratio was 1.07.

For TCCGGCAGTA, the switch fluorescence ratio was 1.46.

With TTCGGAGGTG the switch fluorescence ratio was 1.1.

TCTCGTACG showed a switch fluorescence ratio of 0.995.

For GATCGACAAT, the switch fluorescence ratio was 1.2.

TGAACGGCCA gave a switch fluorescence ratio of 0.992.

For ATGAGCGACA, the switch fluorescence ratio was 1.

With TCACCTCAAA the switch fluorescence ratio was 1.02.

With GCCGGTAATA the switch fluorescence ratio was 1.02.

With CGAGATGGGA the switch fluorescence ratio was 0.997.

TAAACCCGAC gave a switch fluorescence ratio of 1.63.

For GGGACGCCAG, the switch fluorescence ratio was 1.03.

Work on CATGTTAAAA yielded a switch fluorescence ratio of 1.04.

Work on AGATGGTAT yielded a switch fluorescence ratio of 1.02.

GCACGCTCAG gave a switch fluorescence ratio of 1.03.

With CAATTCTACG the switch fluorescence ratio was 1.05.

Work on GCTGAAGTCT yielded a switch fluorescence ratio of 0.976.

GCCTGGTACA showed a switch fluorescence ratio of 1.02.

TCTGAGCGTC gave a switch fluorescence ratio of 0.982.

GTCGCAACTA was tested, and the switch fluorescence ratio was 1.12.

In the case of GTGTGGGGTA, the switch fluorescence ratio was 0.992.

GTGGGGGATC was tested, and the switch fluorescence ratio was 0.956.

Sequence ATTCAAGTAT has a switch fluorescence ratio of 0.998.

GGGGGATTCA showed a switch fluorescence ratio of 1.01.

Sequence CAGACGTGCC has a switch fluorescence ratio of 1.03.

AGGTGCG gave a switch fluorescence ratio of 0.983.

For TTGAACCCGT, the switch fluorescence ratio was 0.978.

For CCGGCGTCCG, the switch fluorescence ratio was 1.09.

TATAGAGA gave a switch fluorescence ratio of 1.03.

GCTCGGCCAT gave a switch fluorescence ratio of 1.24.

GATTCATGAT showed a switch fluorescence ratio of 0.89.

AATTCAGGGT gave a switch fluorescence ratio of 0.999.

For GATCATGGTT, the switch fluorescence ratio was 1.04.

In the case of CATACTTGAC, the switch fluorescence ratio was 0.999.

GGACGCCACC showed a switch fluorescence ratio of 1.63.

Work on TACTACGGGA yielded a switch fluorescence ratio of 1.09.

Work on TAGGCTTCC yielded a switch fluorescence ratio of 2.38.

Work on CATGAGGA yielded a switch fluorescence ratio of 0.956.

For ATTAAACTAT, the switch fluorescence ratio was 0.997.

With TTGAAATTGC the switch fluorescence ratio was 1.01.

With TGATGTGATA the switch fluorescence ratio was 1.01.

Sequence TAGAATATTG has a switch fluorescence ratio of 1.01.

CAAGATCTGC showed a switch fluorescence ratio of 0.956.

With TTCAGATGGC the switch fluorescence ratio was 0.992.

Sequence AGCGCATGGT has a switch fluorescence ratio of 1.

In the case of TGTTCTTC, the switch fluorescence ratio was 0.951.

In the case of TCGCACCCCA, the switch fluorescence ratio was 1.67.

Work on TTAGTTCGC yielded a switch fluorescence ratio of 1.

CGTCGTTTTT showed a switch fluorescence ratio of 0.963.

In the case of AAGTTGCGT, the switch fluorescence ratio was 1.03.

With GCTGTACACT the switch fluorescence ratio was 0.991.

GTCATATTT showed a switch fluorescence ratio of 1.02.

TCATAGATAG showed a switch fluorescence ratio of 1.01.

In the case of CCAGAAACAT, the switch fluorescence ratio was 1.01.

With GGAGAAAACA the switch fluorescence ratio was 1.03.

ATACGCTATT gave a switch fluorescence ratio of 1.27.

For CGCTTGCCTT, the switch fluorescence ratio was 1.02.

With TAGATAATGT the switch fluorescence ratio was 0.979.

In the case of TATGCGGAGA, the switch fluorescence ratio was 1.03.

With CGGCGCATCT the switch fluorescence ratio was 1.28.

In the case of GCCCATGAAC, the switch fluorescence ratio was 0.995.

TACAATGAAA showed a switch fluorescence ratio of 1.03.

Sequence GTCTTTCATA has a switch fluorescence ratio of 0.975.

Sequence GCGGGTGAGA has a switch fluorescence ratio of 1.07.

CCGTTAGCGC gave a switch fluorescence ratio of 3.39.

Work on GGTCGCTGAG yielded a switch fluorescence ratio of 1.01.
